{"source": "patent US20250276070A1", "binders": {"B1": {"name": "T-01 MB.v2 IgG1 WT (protein)", "chain 1": "DFVLTQSPHSLSVTPGESASISCKSSHSLIHGDRNNYLAWYVQKPGRSPQLLIYLASSRASGVPDRFSGSGSDKDFTLKISRVETEDVGTYYCMQGRESPWTFGQGTKVDIKRTVAAPSVFIFPPSDEQLKSGTASVVCLLNNFYPREAKVQWKVDNALQSGNSQESVTEQDSKDSTYSLSSTLTLSKADYEKHKVYACEVTHQGLSSPVTKSFNRGECGGGGSGGGGSGGGGSGGGGSGGGGSGGGGSGGGGSGGGGSGGGGSGGGGSGGGGSGGGGSGGGGSGGGGSQAQLVQSGPEVRKPGTSVKVSCKAPGNTLKTYDLHWVRSVPGQGLQWMGWISHEGDKKVIVERFKAKVTIDWDRSTNTAYLQLSGLTSGDTAVYYCAKGSKHRLRDYALYDDDGALNWAVDVDYLSNLEFWGQGTAVTVSSASTKGPSVFPLAPSSKSTSGGTAALGCLVKDYFPEPVTVSWNSGALTSGVHTFPAVLQSSGLYSLSSVVTVPSSSLGTQTYICNVNHKPSNTKVDKKVEPKSCDGGGGSGGGGSGGGGSGGGGSGGGGSG[about 200 residues not printed]", "chain 2": "QSALTQPRSVSASPGQSVTISCTGTHNLVSWCQHQPGRAPKLLIYDFNKRPSGVPDRFSGSGSGGTASLTITGLQDDDDAEYFCWAYEAFGGGTKLTVLGQPKAAPSVTLFPPSSEELQANKATLVCLISDFYPGAVTVAWKADSSPVKAGVETTTPSKQSNNKYAASSYLSLTPEQWKSHRSYSCQVTHEGSTVEKTVAPTECGGGGSGGGGSGGGGSGGGGSGGGGSGGGGSGGGGSGGGGSGGGGSGGGGSGGGGSGGGGSGGGGSGGGGSADLVQSGAVVKKPGDSVRISCEAQGYRFPDYIIHWIRRAPGQGPEWMGWMNPMGGQVNIPWKFQGRVSMTRDTSIETAFLDLRGLKSDDTAVYYCVRDRSNGSGKRFESSNWFLDLWGRGTAVTIQSASTKGPSVFPLAPSSKSTSGGTAALGCLVKDYFPEPVTVSWNSGALTSGVHTFPAVLQSSGLYSLSSVVTVPSSSLGTQTYICNVNHKPSNTKVDKKVEPKSCGGGGSGGGGSGGGGSGGGGSGGGGSGGSSQIRQNYSTDVEAAVNSLVNLYLQASYTYLSLGFYFDRDDVALEGVSHFFRELAEEKREGYERLLKMQNQRGGRALFQDIKKPAEDEW", "chain 3": "SELTQDPAVSVALKQTVTITCRGDSLRSHYASWYQKKPGQAPVLLFYGKNNRPSGIPDRFSGSASGNRASLTITGAQAEDEADYYCSSRDKSGSRLSVFGGGTKLTVLSQPKAAPSVTLFPPSSEELQANKATLVCLISDFYPGAVTVAWKADSSPVKAGVETTTPSKQSNNKYAASSYLSLTPEQWKSHRSYSCQVTHEGSTVEKTVAPTECGGGGSGGGGSGGGGSGGGGSGGGGSGGGGSGGGGSGGGGSGGGGSGGGGSGGGGSGGGGSGGGGSGGGGSEVRLVESGGGLVKPGGSLRLSCSASGFDFDNAWMTWVRQPPGKGLEWVGRITGPGEGWSVDYAESVKGRFTISRDNTKNTLYLEMNNVRTEDTGYYFCARTGKYYDFWSGYPPGEEYFQDWGQGTLVIVSSASTKGPSVFPLAPSSKSTSGGTAALGCLVKDYFPEPVTVSWNSGALTSGVHTFPAVLQSSGLYSLSSVVTVPSSSLGTQTYICNVNHKPSNTKVDKKVEPKSCGGGGSGGGGSGGGGSGGGGSGGGGSGGGGKTPDAMKAAMALEKKLNQALLDLHALGSARTDPHLCDFLETHFLDEEVKLIKKMGDHLTNLHRLGGPEAGLGEYLFERLTLRHDGGSGGSGGSGGSGGGSGGSGGSGGSG[human IgG1 Fc not printed]"}}, "key": {"[1]": {"target": "His-tagged MPER peptide (HIV-1)", "test": "BLI, His-tagged target on Ni-NTA"}, "[2]": {"target": "gp120 subunit 93TH057 (HIV-1)", "test": "BLI, His-tagged target on Ni-NTA"}}, "data": [{"binder": "B1", "values": [{"measurement": "Kd", "setting": "[1]", "value": "< 1", "unit": "pM"}, {"measurement": "koff", "setting": "[1]", "value": "< 1e-07", "unit": "s⁻¹"}, {"measurement": "kon", "setting": "[1]", "value": 183000, "unit": "M⁻¹ s⁻¹"}, {"measurement": "Kd", "setting": "[2]", "value": "< 1", "unit": "pM"}, {"measurement": "koff", "setting": "[2]", "value": "< 1e-07", "unit": "s⁻¹"}, {"measurement": "kon", "setting": "[2]", "value": 613000, "unit": "M⁻¹ s⁻¹"}]}]}
